We go through 110 sequences from paper PMC10668032.

This is one part of the list. At the low end of the ranking the order means little.

This assay deals with SIX1 homeodomain (reference allele) (UniProt Q15475). The assay is described as follows: universal protein binding microarray. Conditions: Universal all-10-mer PBM (8x60K, AMADID 030236), 300 nM GST-tagged protein, Alexa Fluor 488 anti-GST; buffer, salt, pH and temperature not stated; high values mean tight binding; most listed sequences are background and not binding sites; double strand, one strand shown.
With ACCCAAGA, the binding signal was -0.0172 E-score.

As for GCGTATAA, the binding signal worked out at 0.16 E-score.

As to CAGACTTA, the binding signal was -0.192 E-score.

Turning to AACGGTCA, the binding signal was -0.156 E-score.

Consider AGAGGCCA, for which the binding signal is -0.234 E-score.

Consider CTTGTACC, for which the binding signal is -0.143 E-score.

In the case of GCCGCAAC, the binding signal is -0.054 E-score.

Regarding ACGTTTCA, the binding signal was -0.0877 E-score.

For GCAACGCA, the binding signal was -0.26 E-score.

Take AAACGAAA: the binding signal is -0.171 E-score.

Take CGTTGAAA: the binding signal was -0.226 E-score.

As to AGTACAGG, the binding signal was -0.169 E-score.

Consider AGTTATGG, for which the binding signal is -0.281 E-score.

Turning to ATACATTC, the binding signal was determined as 0.188 E-score.

On to CAAGTTGC, for which the binding signal is -0.184 E-score.

Consider ACAAGGCG, for which the binding signal is -0.105 E-score.

For AACGGTTG, the binding signal was -0.2 E-score.

Consider GTCTTCCA, for which the binding signal is -0.295 E-score.

Consider CCTACACG, for which the binding signal was 0.0228 E-score.

CGTGCCAA: the binding signal is -0.228 E-score.

For the sequence CCTGAGGA, the binding signal was 0.092 E-score.

As for ACGCGGCA, the binding signal is -0.233 E-score.

For the sequence AATACGGA, the binding signal amounted to 0.169 E-score.

Regarding TAAGATTA, the binding signal worked out at 0.0857 E-score.

As to GCTTCTTA, the binding signal was -0.0935 E-score.

In the case of GATTCACA, the binding signal was -0.0224 E-score.

GTGATCAC: the binding signal was found to be 0.306 E-score.

On to GATCAGCC, for which the binding signal is 0.293 E-score.

For ACCGTGTC, the binding signal came out at 0.0715 E-score.

For the sequence AAGTTTAG, the binding signal is -0.0875 E-score.

Turning to GACACGAC, the binding signal is 0.0694 E-score.

As for GTGTCTTA, the binding signal amounted to 0.0446 E-score.

With ACCCATCC, the binding signal turned out to be 0.134 E-score.

Turning to TGTCGGAA, the binding signal stood at 0.0291 E-score.

As for ACATTCCT, the binding signal was -0.119 E-score.

Consider ACATTGCC, for which the binding signal is -0.176 E-score.

For AGCAACGA, the binding signal amounted to 0.0876 E-score.

As to CTCCGGTC, the binding signal was 0.0798 E-score.

Turning to AACGTGCC, the binding signal is -0.27 E-score.

In the case of AGCTACCG, the binding signal was -0.108 E-score.

On to TACGGCAA, for which the binding signal was -0.062 E-score.

Regarding ATCTGATA, the binding signal stood at 0.446 E-score.

On to AGCACTAT, for which the binding signal came out at 0.136 E-score.

For the sequence CGTTTGCC, the binding signal is -0.063 E-score.

For CAGAACAA, the binding signal stood at 0.176 E-score.

Consider TCAAAGCA, for which the binding signal was -0.0755 E-score.

Consider CTCCCACA, for which the binding signal was 0.00948 E-score.

Turning to CAAAAATG, the binding signal amounted to 0.0133 E-score.

As for ACAGTTCT, the binding signal was -0.0496 E-score.

Turning to CTGGGGAC, the binding signal is -0.19 E-score.

As for CCCAGTAA, the binding signal turned out to be 0.0044 E-score.

As for GCAATGGC, the binding signal was -0.16 E-score.

As for CAGAACGG, the binding signal was -0.1 E-score.

Regarding ACGAAGCC, the binding signal was -0.181 E-score.

For the sequence AATCAGGA, the binding signal is 0.15 E-score.

As to TCGGCGCA, the binding signal is -0.0945 E-score.

On to CGGGAGAA, for which the binding signal was -0.0174 E-score.

On to TCACAACA, for which the binding signal was -0.051 E-score.

Take TCGTGTCA: the binding signal was 0.125 E-score.

On to TATATAGA, for which the binding signal stood at 0.133 E-score.

Turning to CCTTCTCA, the binding signal was 0.319 E-score.

With CCATACCC, the binding signal worked out at 0.274 E-score.

On to AAGACCTC, for which the binding signal was -0.26 E-score.

As to CGCTAACA, the binding signal is -0.121 E-score.

On to ATGGTAAG, for which the binding signal was -0.0376 E-score.

For AAGGGTTG, the binding signal is -0.12 E-score.

Consider CCGATGCG, for which the binding signal stood at 0.215 E-score.

As for CTTAACTA, the binding signal was -0.0135 E-score.

On to CATATTCA, for which the binding signal is 0.0617 E-score.

CACAAGGG: the binding signal is -0.0104 E-score.

Consider GGGCATCA, for which the binding signal amounted to 0.109 E-score.

Regarding CCCAAAAC, the binding signal was 0.0568 E-score.

AGATTCTA: the binding signal is -0.0391 E-score.

For CGAGTCCG, the binding signal was -0.162 E-score.

As to AGTAGCAT, the binding signal stood at 0.0466 E-score.

AACGATGT: the binding signal was -0.135 E-score.

Turning to CCAAATAG, the binding signal was -0.0162 E-score.

In the case of CAGGTATC, the binding signal was found to be 0.464 E-score.

Regarding GGAATACA, the binding signal amounted to 0.035 E-score.

With GATATCGA, the binding signal was found to be 0.42 E-score.

On to AATTTCAG, for which the binding signal is -0.321 E-score.

As to AATAAGCC, the binding signal is -0.152 E-score.

As to ACTACAAT, the binding signal turned out to be 0.00924 E-score.

As for AAGATATC, the binding signal worked out at 0.445 E-score.

As to ATCGTCGG, the binding signal turned out to be 0.0772 E-score.

With AGACAGCC, the binding signal was -0.214 E-score.

With ATCTCCCC, the binding signal was determined as 0.249 E-score.

On to AATTCAAG, for which the binding signal is -0.071 E-score.

As to CACTGGAC, the binding signal was -0.115 E-score.

For AATACTCG, the binding signal is 0.165 E-score.

For the sequence AATTACCG, the binding signal is -0.11 E-score.

Turning to ATGTCCCA, the binding signal was -0.18 E-score.

Regarding GAATTTGC, the binding signal was -0.0839 E-score.

As to AAATCGGG, the binding signal is -0.0204 E-score.

Take GCGGGGAA: the binding signal was -0.114 E-score.

On to AGGTCACG, for which the binding signal is -0.176 E-score.

For the sequence ACGACATG, the binding signal is -0.142 E-score.

In the case of AGCCACTC, the binding signal was -0.0841 E-score.

With CCCAGGTC, the binding signal is -0.162 E-score.

Take CATATGTC: the binding signal turned out to be 0.0736 E-score.

As for CTCTGTGC, the binding signal is -0.09 E-score.

For the sequence AAGGGACC, the binding signal was -0.0884 E-score.

For AGGACAAC, the binding signal is -0.076 E-score.

Turning to CGTACCGC, the binding signal was found to be 0.0254 E-score.

Consider GATCCTCC, for which the binding signal amounted to 0.381 E-score.

As for AATTAACA, the binding signal was -0.0919 E-score.

GCCTCCAA: the binding signal is -0.158 E-score.

As to CACATCGA, the binding signal was -0.174 E-score.

As to CCCCTCCA, the binding signal came out at 0.215 E-score.

For the sequence ACAACGGC, the binding signal is -0.196 E-score.
